In PubChem BioAssay AID1508624 (National Center for Advancing Translational Sciences (NCATS), 2021):
In all, about 48,000 compounds went through this assay and about 120 (0.25%) were called active. Inconclusive results (about 4%) are left out. Calls come from the whole dose curve; as a rule, active = well fitted activation curve with a large enough effect; inconclusive = small, poorly fitted or top-dose-only effect, or another doubt; inactive = no such curve, though single readings can be large or run the other way. The entries are a selection whose mix differs from that of the whole data set. The source gives no active or inactive call for entries shown without one.

Assay: Primary qHTS for Identification of Small Molecule Activators of Huntingtin-Antisense Promoter Activity; note: nearly all actives have a fitted effect of over 55% in size
Conditions: HEK293 HTT-AS promoter firefly luciferase reporter, 24 h; activity change, positive = activation: at 57.5 µM (top of the series), percent change from vehicle, -100% = no light
Description: Assay Provider: Russell L. Margolis M.D.
Department Neurology, Johns Hopkins University School of Medicine, Baltimore, MD
Huntington's Disease (HD) is a neurodegenerative disorder caused by a CAG repeat expansion in exon 1 of huntingtin (HTT). While there are currently no disease-modifying treatments for HD, recent efforts have focused on development of nucleotide-based therapeutics to lower HTT expression. As an alternative to siRNA or oligonucleotide methods, we hypothesized that suppression of HTT expression might be accomplished by small molecules that either (1) directly decrease HTT expression by suppressing HTT promoter activity or (2) indirectly decrease HTT expression by increasing the promoter activity of HTT-AS, the gene antisense to HTT that appears to inhibit expression of HTT.
We developed and employed a high throughput screen for modifiers of HTT and HTT-AS promoter activity using luminescent reporter HEK293 cells; of the 52,041 compounds tested, we identified 898 replicable hits. We used a rigorous stepwise approach to assess compound toxicity and the capacity of the compounds to specifically lower huntingtin protein in 5 different cell lines, including HEK293 cells, HD lymphoblastoid cells, mouse primary neurons, HD iPSCs differentiated into cortical-like neurons, and HD hESCs. We found no compounds which were able to lower huntingtin without lowering cell viability in all assays, though the potential efficacy of a few compounds at non-toxic doses could not be excluded.
SEQUENCE No. (1, 2, 3, etc.); […] (e.g., Cells, Incubation, Reagent, etc.); VALUE and DESCRIPTION.
1; Reagent; 4 uL; 2,500 Hek293 luciferase reporter cells per wells
3; Compound; 23 nL; Control inhibitor / compound library
5; Reagent; 2.5 uL; Firefly Luc reagent; Dual-Glo Luciferase Reporter Assay System (Promega)
6; Time; 10 min; room temperature incubation
7; Detection; Luminescence; FLuc
NOTES (numbers refer to sequence above)
1; High-throughput screening, measuring luminescence from a Hek293 luciferase reporter, was performed in 1,536 well white-walled tissue-culture treated plates. 2,500 cells were plated in 4 µL of Opti-MEM per well using a Multidrop Combi Reagent Dispenser (ThermoFisher).
2; Assay plates were cultured for 24 hours.
3; Control inhibitor (PTC124; final concentration of 50 uM) and compound library (at final concentrations of 460 nM - 57.5 uM) were added to the assay plate using the Kalypsis Pintool Robotic System equipped with 1536 pinheads.
4; Cells were then incubated for 24 hours at 37 degrees C prior to luminescence measurements.
5; In all cases, luminescence was measured using the Dual-Glo Luciferase Reporter Assay System (Promega) following the manufacturer's instructions.
6; Room temperature incubation.
7; Luminescence signal was obtained using the PerkinElmer ViewLux plate reader. Results were normalized to vehicle control (0% activity) and zero RLU (-100% activity).

SMILES | activity change, positive = activation
COc1ccccc1N1CCN(C(=O)c2cc3c(=O)oc4ccccc4c3s2)CC1 | inactive: -8.91%
N#Cc1ccccc1OCC(=O)N1CCN(c2ccccc2F)CC1 | 2.47%
CCOc1ccc(C2C(=O)N(C3CCCCCC3)CC(=O)N2CCc2ccc(Cl)cc2)cc1OC (stereo not drawn) | -34.2%
CCCc1cc(=O)[nH]c(Nc2ccc(C)c(O)c2)n1 | -3.64%
COC(=O)c1ccc(NC(=O)CC2C(=O)N(c3ccc(C)cc3)C(=O)N2Cc2ccc(OC)cc2)cc1 (stereo not drawn) | -11.6%
Cc1cccc(CCNC(=O)c2c[nH]c3ccc(S(=O)(=O)Nc4ccccc4F)cc3c2=O)c1 | inactive: -46%
COC(=O)c1ccc(NC(=O)CC2C(=O)N(c3cccc(C)c3)C(=O)N2C2CCCC2)cc1 (stereo not drawn) | -10.1%
COC(=O)c1cc2oc3ccccc3c2n1CC(=O)Nc1ccc(N(C)C)cc1 | 33.8%
Cn1c(=O)c(F)c(Nc2ccc(I)cc2F)c2c(=O)n(C[C@@H](O)CO)cnc21 | inactive: -30%
COc1ccccc1CN1C(=O)CN(C2CCCCCC2)C(=O)C1c1ccc(C)cc1 (stereo not drawn) | -0.696%
CN(C)S(=O)(=O)c1ccc(C(=O)NC2CC(=O)N(c3ccc4c(c3)OCCO4)C2)cc1 (stereo not drawn) | inactive: -29.3%
COc1ccc(NC(=O)CSc2nc(-c3ccco3)nc3cc(=O)[nH]n23)cc1 | -2.91%
O=S(=O)(Nc1ccc(-c2ccc(N3CCCC3)nn2)cc1)c1cccc(C(F)(F)F)c1 | -2.79%
Cc1cc(C(=O)Nc2c(C)nn(Cc3ccc(F)cc3)c2C)no1 | -10.6%
CC1Cc2cc(S(=O)(=O)CCC(=O)Nc3ccc(F)c(Cl)c3)ccc2N1C(=O)C1CC1 (stereo not drawn) | -32.8%
O=C(NC1CC1)c1cccc(-c2ccc3c(NC(=O)C4CC4)n[nH]c3c2)c1 | inactive: -26.6%
CCc1ccc(NC(=O)CC2C(=O)N(c3cccc(C)c3)C(=O)N2Cc2ccco2)cc1 (stereo not drawn) | -8.52%
COc1cccc2cc(C(=O)NCCc3c(C)[nH]c4ccc(F)cc34)c(=O)oc12 | inactive: 5.11%
CC(C)(C)c1ccc(-c2nc(SCC(=O)Nc3ccccc3F)n3[nH]c(=O)cc3n2)cc1 | -9.45%
Cc1ccccc1NC(=O)c1c(C)oc2ccc(O)c(CN3CCN(C)CC3)c12 | -5.95%
Cc1nc2ccn(Cc3cccs3)c(=O)c2cc1C(=O)N1CCN(c2ccccc2F)CC1 | -18.5%
O=C1C(=O)N(C2CCN(C(=O)c3ccccc3Cl)CC2)CCN1Cc1ccc(F)cc1 | -1.21%
COc1cc(=C2C=c3ccccc3=N2)[nH]c1=Cc1[nH]c(C)cc1C | inactive: -46.6%
COc1ccccc1CNC(=O)CCS(=O)(=O)c1ccc2c(c1)CCN2C(C)=O | -7.63%

SMILES | activity change, positive = activation
Cc1ccc(-n2ncc3c(Nc4cccc(C)c4C)ncnc32)cc1 | inactive: -19.7%
CC1Cc2cc(S(=O)(=O)NCc3ccccc3Cl)ccc2N1C(=O)C1CCC1 (stereo not drawn) | inactive: -80.1%
CCOc1ccc(NC(=O)c2ccc(-c3nc(COc4ccccc4)c(C)o3)cc2)cc1 | -11.9%
CCOc1ccc(C(=O)Nc2ccc3nc(SCc4ccccc4)sc3c2)cc1 | inactive: -17.5%
COc1ccc(CN2COc3ccc4c(oc(=O)c5ccccc54)c3C2)cc1OC | -0.224%
Cc1nn(-c2ccc(N3CCCCC3)nn2)c(C)c1CCC(=O)NCc1ccccc1F | -15.6%
Nc1nc(Nc2ccc(S(N)(=O)=O)cc2)nn1C(=O)c1c(F)cccc1F | inactive: -33%
CCOC(=O)c1cccc(NS(=O)(=O)c2cn(C)c(C)n2)c1 | inactive: -13.7%
CCOC(=O)c1ccc(NC(=O)c2ccc3c(c2)NC(=O)c2ccccc2S3)cc1 | -23.6%
CS(=O)c1ccc(-c2nc(-c3ccc(F)cc3)c(-c3ccncc3)[nH]2)cc1 (stereo not drawn) | inactive: -24.5% [at 116 µM, percent change from vehicle, -100% = no light]
O=C(O)CCc1nc2ccccc2[nH]1 | inactive: -10.5%
COc1ccc2c(c1)CCc1c(C(=O)Nc3cc(C)ccc3O)noc1-2 | 79.2%
COc1cc(-c2nnc(SCC(=O)Nc3ccc(F)c(Cl)c3)o2)cc(OC)c1OC | 6.42%
COc1cccc(C(=O)Nc2ccccc2OCc2cc(=O)n3cc(C)ccc3n2)c1 | inactive: -3.77%
COc1ccc(-c2nc(C)c(CCNC(=O)Cc3ccc(F)cc3)s2)cc1OC | inactive: -7.47%
CCCc1cc(=O)[nH]c(Nc2ccc(C(=O)O)cc2)n1 | -1.5%
CC1(C)CC(=O)c2c(oc3c(Cl)cc(NS(=O)(=O)c4ccc(Cl)cc4)cc23)C1 | -4.82%
COc1cc(C2C(=O)N(C3CCCCCC3)CC(=O)N2CCc2ccccc2)ccc1OC(C)C (stereo not drawn) | 1.97%
Cc1ccc(C)c(-n2c(N)c(C#N)c3nc4ccccc4nc32)c1 | -16.2%
Cc1nc2ccn(Cc3ccco3)c(=O)c2cc1C(=O)NCc1ccccc1 | -19.2%
CCCCOc1cccc(C(=O)N(Cc2ccc(C)o2)c2ccccn2)c1 | inactive: -48%
C[C@@H](Oc1ccc2[nH]nc(C=Cc3cnn(CCO)c3)c2c1)c1c(Cl)cncc1Cl | inactive: -38%
CCc1ccc(CNC(=O)c2cc3c(=O)n(Cc4cccs4)ccc3nc2C)cc1 | -27.1%
O=C(CSc1cn(CCNC(=O)c2c(F)cccc2F)c2ccccc12)Nc1ccc(F)cc1 | inactive: -19.8%
